# Assay results: PubChem BioAssay AID1468 (National Center for Advancing Translational Sciences (NCATS), 2008)
# The whole screen tested about 280,000 compounds, of which about 1,100 (0.39%) were called active. The shares of active, inactive and inconclusive entries below differ from those in the screen. Calls come from the whole dose curve; as a rule, active = well fitted inhibition curve with a large enough effect; inconclusive = small, poorly fitted or top-dose-only effect, or effect the other way; inactive = flat fitted curve, though single readings scatter. Potencies of inconclusive entries are left out as doubtful fits.
# Target: Microtubule-associated protein tau (Homo sapiens) (UniProt P10636)
# Sequence of UniProt P10636 (P10636 whole entry, looked up): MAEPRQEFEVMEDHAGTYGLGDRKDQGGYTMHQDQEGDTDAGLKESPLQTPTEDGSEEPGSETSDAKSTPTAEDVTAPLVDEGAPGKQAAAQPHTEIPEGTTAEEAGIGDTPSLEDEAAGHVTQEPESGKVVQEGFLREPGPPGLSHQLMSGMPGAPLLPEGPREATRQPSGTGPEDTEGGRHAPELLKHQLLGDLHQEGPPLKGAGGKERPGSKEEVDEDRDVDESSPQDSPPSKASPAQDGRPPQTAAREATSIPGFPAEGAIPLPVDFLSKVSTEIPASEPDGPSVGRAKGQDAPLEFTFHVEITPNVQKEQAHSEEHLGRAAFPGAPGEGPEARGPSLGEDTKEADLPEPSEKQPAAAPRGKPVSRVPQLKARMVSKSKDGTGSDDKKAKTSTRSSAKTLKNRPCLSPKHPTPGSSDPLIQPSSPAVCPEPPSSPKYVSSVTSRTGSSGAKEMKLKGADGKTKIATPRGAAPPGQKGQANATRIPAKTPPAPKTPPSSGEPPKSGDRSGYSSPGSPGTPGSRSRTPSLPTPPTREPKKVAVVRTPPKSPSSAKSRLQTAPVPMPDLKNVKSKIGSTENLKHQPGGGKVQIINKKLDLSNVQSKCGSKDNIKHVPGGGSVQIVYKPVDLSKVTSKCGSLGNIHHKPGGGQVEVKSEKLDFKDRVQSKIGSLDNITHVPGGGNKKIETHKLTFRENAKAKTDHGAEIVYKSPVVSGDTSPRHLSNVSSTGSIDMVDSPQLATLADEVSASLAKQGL
# Assay: qHTS for Inhibitors of Tau Fibril Formation, Fluorescence Polarization; note: nearly all actives have a fitted effect of over 55% in size
# Settings: K18 P301L tau heparin fibrillization, Alexa594 FP, 6 h; series mostly up to 57.7 µM
# Outline: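 K18 P301L tau (15 uM unlabeled/0.24 uM Alexa 594-labeled, final) + compound + heparin 20 uM final; 100 mM NaOAc pH 7; 6 hr 37 C; ThT 30 uM final added, 1 hr RT; FP ex 555/em 632 nm.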
# Potency is the fitted concentration of half-maximal effect; tags give direction and shape of the fitted curve.
row,Compound,Potency
1,N/C(=N\OC(=O)c1cc(Cl)ccc1Cl)c1ccccn1,inactive
2,Cc1cc([N+](=O)[O-])ccc1NC(=O)C(C)[n+]1ccccc1 (stereo not drawn),"inconclusive [inhibitor, single point]"
3,CN(C)c1ccc2c(O)cc(=O)n(C)c2c1,active: 22.4 µM
4,O=C(/C=C/c1ccc(O)c(O)c1)OC(Cc1ccc(O)c(O)c1)C(=O)O (stereo not drawn),inactive
5,O=C1CC(=O)N(Cc2cccs2)C(=O)N1,"inconclusive [inhibitor, single point]"
6,CC(C)CN1C(=O)/C(=C/c2ccco2)NC1=S,"inconclusive [inhibitor, single point]"
7,O=C(Cn1cnc([N+](=O)[O-])c1)Nc1cc(Oc2ccc(Cl)cc2Cl)cc([N+](=O)[O-])c1,"inconclusive [inhibitor, partial curve]"
8,CCN1C(=O)N/C(=C/c2ccc(C)o2)C1=O,"inconclusive [inhibitor, single point]"
9,O=C(Nc1cccc(-c2nc3ccccc3s2)c1)c1cc(=O)c2ccccc2o1,"inconclusive [inhibitor, partial curve]"
10,Cc1cccc(OCC(=O)Nc2ccc(S(=O)(=O)N(Cc3ccccc3)c3ccccc3)cc2)c1,"inconclusive [inhibitor, partial curve]"
11,COc1ccc(N2CCN(CC(O)COCCOc3ccc(Br)cc3)CC2)cc1 (stereo not drawn),"inconclusive [activator, single point]"
12,BrC(=C\c1ccccc1)/C=N/Nc1nc(N2CCOCC2)nc(N2CCOCC2)n1,inactive
13,O=C(CSc1nc2c([nH]c3ccccc32)c(=O)n1-c1ccc(F)cc1)Nc1ccc2c(c1)OCO2,"inconclusive [inhibitor, single point]"
14,COc1ccc2c(c1)c(=O)c(C(=O)c1ccc(Cl)cc1)cn2CC(=O)Nc1ccc(F)cc1,"inconclusive [inhibitor, partial curve, poor fit]"
15,O=C(c1ccco1)N1CCN(C(=O)c2cc3c(s2)-c2ccccc2OC3)CC1,"inconclusive [inhibitor, single point]"
16,Cc1ccc2oc(=O)c(-c3nc(-c4cccs4)no3)cc2c1,"inconclusive [inhibitor, partial curve]"
17,O=C(Nc1cccc(C(=O)OCc2cc(=O)n3ccsc3n2)c1)c1ccc(F)cc1,"inconclusive [inhibitor, single point]"
18,CCSc1nc2c(sc3ccccc32)c(=O)n1C(C)C,"inconclusive [inhibitor, single point]"
